Some of the results follow.
T1: UNK ZnF1-6 (called full-length) (human, UniProt Q9C0B0 30-357)
T1 sequence: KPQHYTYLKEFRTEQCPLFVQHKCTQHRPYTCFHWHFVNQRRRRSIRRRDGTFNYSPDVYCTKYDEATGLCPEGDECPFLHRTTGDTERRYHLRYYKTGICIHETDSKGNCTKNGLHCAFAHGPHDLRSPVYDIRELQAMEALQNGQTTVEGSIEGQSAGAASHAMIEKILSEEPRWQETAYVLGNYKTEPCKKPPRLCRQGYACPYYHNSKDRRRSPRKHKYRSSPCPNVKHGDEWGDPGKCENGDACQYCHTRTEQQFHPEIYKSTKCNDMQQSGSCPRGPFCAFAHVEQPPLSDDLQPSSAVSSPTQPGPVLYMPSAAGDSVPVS

B1: chr17:57839567:57839672:-|3pUTR|ENSG00000181610|unk|total|mutant (ssRNA)
RNA: GGGAGUUCUACAGUCCGACGAUCGGGUUGUCACAAAGCUCAGUAUCAUGGUUUGACAGAAGCAGUUAUGUGAACUUUUAUGUCCGGACAUUACUAAAUAAAGAAUUCCCCCGCUGCUUAUAAAGUAAAUUUACUUUGAAUUGUCAACAGAGGAUUGAGCAUCA
B2: chr22:29555535:29555644:-|3pUTR|ENSG00000184117|unk|FALSE|unique (ssRNA)
RNA: GGGAGUUCUACAGUCCGACGAUCUUCCUCAUCUCAAGGCCACCAGUCCCCAGUUAUCACCCUUGGAAAUCCUCUGUUUAGCUUAGUUGCACAAAAGGUAGUAUGUCCAGUGGCUAGAGGUGGGGUGGGAAGAGAGGAGGCCAGCAACAGAGGAUUGAGCAUCA
B3: chr10:33178043:33178144:-|3pUTR|ENSG00000099250|msi1|FALSE|unique (ssRNA)
RNA: GGGAGUUCUACAGUCCGACGAUCAAAUUGGAUUGAGAAUGCCUUUUGUUUCCAGGAAAAUAUUGAUCACCAUGAAAGAAGAAUAGUUUUUUGUCCCCAGAGACAUUCAUUUAGUUGAUAUAAUCCUACCAGAAGGAAAGCACUCAACAGAGGAUUGAGCAUCA
B4: ENSG00000070961:be:win_1451|CDS|ENSG00000070961|bound_else_gene|NA|bound_elsewhere_windowed (ssRNA)
RNA: GGGAGUUCUACAGUCCGACGAUCGAAUGACAGUCGUUCAAGCUUACAUAAAUGAAAAACAUUAUAAAAAGGUUCCUGAACCAGAAGCUAUUCCACCAAAUAUUUUGUCCUAUCUUGUAACAGGAAUUUCUGUGAAUUGUGCUUCAACAGAGGAUUGAGCAUCA
B5: chr2:75053604:75053755:-|CDS|ENSG00000115353|control|control|control (ssRNA)
RNA: GGGAGUUCUACAGUCCGACGAUCCUGUGUGACUGUGCUGAUCUACUUCCUCCCCCUGCUGGUGAUUGGCUAUGCAUACACCGUAGUGGGAAUCACACUAUGGGCCAGUGAGAUCCCCGGGGACUCCUCUGACCGCUACCACGACAACAGAGGAUUGAGCAUCA
B6: chrX:141908562:141908663:+|CDS|ENSG00000155495|unk|FALSE|unique (ssRNA)
RNA: GGGAGUUCUACAGUCCGACGAUCUCCUCGUUACGAAUUCCUGUGGGGUCCAAGAGCUCAUUCAGAAGUCAUUAAGAGGAAAGUAGUAGAGUUUUUGGCCAUGCUAAAGAAUACCGUCCCUAUUACCUUUCCAUCCUCUUACAACAACAGAGGAUUGAGCAUCA
B7: chr2:24789727:24790410:-|three_prime_utr|ENSG00000184924|control|control|control (ssRNA)
RNA: GGGAGUUCUACAGUCCGACGAUCUUAAUAAGUUCAAGUGGGGAAGGUGGGAGAGCAGUAUUGUCUGGGGAUCAUUGCUCAAAUAGAAGAUUUGGUUAGACUCUCCUGUGGGGCUCAAGGAAACUCCCUUCCAGUCACUCGGGUCAACAGAGGAUUGAGCAUCA
B8: chr8:52158897:52159109:-|CDS|ENSG00000147488|control|control|control (ssRNA)
RNA: GGGAGUUCUACAGUCCGACGAUCCCAGAGCCCUGGCCGUGCCAGCUCUUAUAGCUACGGUCAAUGUAGUGAAGACACCCACAUAGCAGCAGCUGCUGCCAUCCUGAACCUUUCCACCCGCUGCAGGGAAGCCACAGACAUCCUCAACAGAGGAUUGAGCAUCA
B9: chr7:137014887:137014989:+|CDS|ENSG00000181072|unk|total|mutant (ssRNA)
RNA: GGGAGUUCUACAGUCCGACGAUCGCUACUUGGCUACUGAUCCGAGAACGCAAAAUGAAUAACUCAACAAACUCCUCUAACAACCGCCUGGCUCUUACAAGUCCUUAUAAGACAUUUGAAGUGGUGUUUAUUGUCCUGGUGGCUCAACAGAGGAUUGAGCAUCA
B10: chr1:173734013:173734119:+|CDS|ENSG00000076321|unk|total|mutant (ssRNA)
RNA: GGGAGUUCUACAGUCCGACGAUCCAUUGACGAGAGGGCUAUGGAAUUACUGAUUGACUUUGCGUAUACCUCCCAGAUAACAGCCGAAGAGGGCAAUGUUCAGACUCUUCUGCCAGCUGCUUGCCUCCUCCAGCUGGCAGAAAUCAACAGAGGAUUGAGCAUCA
B11: chr18:55226207:55226308:-|3pUTR|ENSG00000196628|unk|FALSE|unique (ssRNA)
RNA: GGGAGUUCUACAGUCCGACGAUCAUUUUUACAGCCACACAAUUCUUGGCAUGUAUUAAGAAAAAAAAAAAUCCCUGUUCAAGUAGUUUUUCCACCUAUCAGCACUGAGUAAAUGCCAUAAAUCCAUUGAAAUGGUCUAAAUGUCAACAGAGGAUUGAGCAUCA
B12: chr5:36975901:36976008:+|CDS|ENSG00000164190|unk|FALSE|unique (ssRNA)
RNA: GGGAGUUCUACAGUCCGACGAUCAUGAAAUUAGGCAAGGAUGAAAAAGAGCAGAGUGAGAAAGCGGCAAUGUAUGAUAUAAUUAGUUCUCCAUCCAAGGACUCUACUAAACUUACAUUAAGACUUUCUCGUGUAAGGUCUUCACAACAGAGGAUUGAGCAUCA
B13: ENSG00000080224:stop:overlap|stop_codon|ENSG00000080224|stop_codon|NA|stop_codon (ssRNA)
RNA: GGGAGUUCUACAGUCCGACGAUCGUACAGGAUAUGAAGAAAUUGAGGGUUCUUGCCAUGGAGCCUCCAAAGGCCGCUGCUUCUAGUUGGCCAUCUUGGCCCCACCCCGAAACAGUAACCUUUGAAGAAUAAAAGAAAAAGCAACAACAGAGGAUUGAGCAUCA
B14: ENSG00000198589:be:win_3001|CDS|ENSG00000198589|bound_else_gene|NA|bound_elsewhere_windowed (ssRNA)
RNA: GGGAGUUCUACAGUCCGACGAUCCUAGAAUCUGCAUCUAAUAUUGAACUGCAAACUACUAAUACAUCUUAUGAAGAAAUGAAAGCUGAGCAAGAAAAUCAGGAGUUACCAGAUGAAGGCACUUUGGAAGAAACACUGACAAAUCAACAGAGGAUUGAGCAUCA
B15: chr11:2928445:2928542:-|3pUTR|ENSG00000181649|msi1_unk|total|mutant (ssRNA)
RNA: GGGAGUUCUACAGUCCGACGAUCAUUGGACUAUCUAAUAUCUAUGUAUUUAUUUCGCUGGUUCUUUGCCGUCACAUAUUUUACCGUCUUAAUAUCUUGUUUUUGCAUCACUGUGCCCAUUGCAAAUAAAUCACUUGGCCAGUUCAACAGAGGAUUGAGCAUCA
B16: chr6:109506326:109506547:-|CDS|ENSG00000155085|control|control|control (ssRNA)
RNA: GGGAGUUCUACAGUCCGACGAUCAAUAGUGCACAAAUUGUAGCUGUCAAUAAUGUAAAGUAUCGCAAAAAUAUUGGUGAGAUUAGGCAAUAUUAUCAAGAACAGCAUCAGAACUGGUAUGUGAUUGAUGGAUUUCACAGCAAACAACAGAGGAUUGAGCAUCA
B17: chr2:25742488:25742589:-|CDS|ENSG00000143970|unk|total|mutant (ssRNA)
RNA: GGGAGUUCUACAGUCCGACGAUCCACUUUAAGUAAGGAGAAUUACCUGUUCACCCGAGGCCAAACAUUUGAUGAAAAGACCCCCGCCAGAGAUUUAAUUCAGGCAGCACAGAAGCAGAUGGCUCAUGCAGUGAGAGGUAAGGCCAACAGAGGAUUGAGCAUCA
B18: chrX:120613669:120613770:+|3pUTR|ENSG00000232119|msi1|FALSE|bound_elsewhere (ssRNA)
RNA: GGGAGUUCUACAGUCCGACGAUCUAUGCCUCCUGUAUAUCCUGUAAACAAAUAAGAUUGAUCAGAUUCAGGUUCAGUUUUUUUAGUGCCUUCUUUUGAGUAAAGUCAUACCAAACAGAUGCCCAGAACAUCUGGAUUUGGGUCCAACAGAGGAUUGAGCAUCA
B19: chr9:127087347:127088938:-|three_prime_utr|ENSG00000136859|control|control|control (ssRNA)
RNA: GGGAGUUCUACAGUCCGACGAUCAUAUACAUGUGUAUGAGCCUCCCUUGUGCACGUAUGUGUAUACCACAUAUAUAUGCAUUUAGAUAUACAUCACAUGUGAUAUAUCUAGAUCCAUAUAUAGGUUUGCCUUAGAUACCUAAACAACAGAGGAUUGAGCAUCA
B20: chr12:131960804:131960905:+|CDS|ENSG00000183495|unk|total|mutant (ssRNA)
RNA: GGGAGUUCUACAGUCCGACGAUCCCCUCAGCAAGCCCGUCGGCACCCCAGUCUCCCAGUUAUCAAAUACAGCAGCUGAUGAACCGGAGCCCUGCAACCGGGCAGAACGUGAACAUCACCCUGCAGAGCGUGGGCCCUGUCGUCCAACAGAGGAUUGAGCAUCA
B21: chr14:75048437:75048538:-|CDS|ENSG00000119684|unk|total|mutant (ssRNA)
RNA: GGGAGUUCUACAGUCCGACGAUCUCAGAAGCGUGUGACUUCCGAUGAGAGGAGCAAUUUCCAGGAAGCAUGUAAUAAUAUUUCCGAUUCCUAUGAGAUGUUUAAUUUGCAGUCAAAAGCUGUGAAAAGAAAAACUACUGCAGACAACAGAGGAUUGAGCAUCA
B22: chr8:41661800:41661941:-|CDS|ENSG00000029534|control|control|control (ssRNA)
RNA: GGGAGUUCUACAGUCCGACGAUCGGUUCGACAGAUAGACUUGUCCAGCGCCGAUGCCGCCCAGGAGCACGAGGAGGUGACUGUAGAGGGGCCCCUGGAGGAUCCCAGUGAGCUGGAGGUCGAUAUUGAUUACUUUAUGAAACACAACAGAGGAUUGAGCAUCA

Target: T1, UNK ZnF1-6 (called full-length)
Assay: nsRBNS (natural sequence RNA bind-n-seq); RBNS binding buffer (assumed for nsRBNS): 25 mM Tris pH 7.5, 150 mM KCl, 3 mM MgCl2, 0.01% Triton X-100, 500 ug/ml BSA, 20 U/ml SUPERase-In, 4 C; UNK is unkempt and MSI1 is Musashi-1; names of the RNAs are library labels; protein concentration not given here; high values mean tight binding

| Binder | binding signal |
| --- | --- |
| B1 | 0.579 enrichment R |
| B2 | 1.06 enrichment R |
| B3 | 0.932 enrichment R |
| B4 | 0.349 enrichment R |
| B5 | 0.902 enrichment R |
| B6 | 0.393 enrichment R |
| B7 | 0.928 enrichment R |
| B8 | 0.674 enrichment R |
| B9 | 0.461 enrichment R |
| B10 | 0.626 enrichment R |
| B11 | 0.438 enrichment R |
| B12 | 0.413 enrichment R |
| B13 | 0.606 enrichment R |
| B14 | 0.413 enrichment R |
| B15 | 1.11 enrichment R |
| B16 | 0.577 enrichment R |
| B17 | 0.721 enrichment R |
| B18 | 0.45 enrichment R |
| B19 | 0.359 enrichment R |
| B20 | 1.09 enrichment R |
| B21 | 0.356 enrichment R |
| B22 | 0.976 enrichment R |

Source: paper PMC12136788
